Reference: the RNAGym collection of RNA variant scans (doi:10.1073/pnas.2313332121)
Variants at the floor of the assay are shown more often than the library holds them.

B1: TPR 5TU (parent)
chain: GGAUCUUCUCGAUCUAACAAAAAAGACAAAUCUGCCACAAAGCUUGAGAGCAUCUUCGGAUGCAGAGGCGGCAGCCUUCGGUGGCGCGAUAGCGCCAACGUUCUCAACUAUGACACGCAAAACGCGUGCUCCGUUGAAUGGAGUUUAUCAUG

Variants of: B1
Assay: polymerase ribozyme fitness, log enrichment relative to wild type (log ratio); higher = more active; in vitro selection for triplet polymerase activity
How it was run: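 One round of in vitro selection, in triplicate, was applied to PCR-built, transcribed mutant libraries of each subunit of a heterodimeric triplet polymerase ribozyme. The steps were annealing with a biotinylated primer, partner subunit and triplets, incubation frozen at −7 °C, gel excision of extended constructs, streptavidin-bead capture and RT-PCR. Fitness is the logarithm, base 2, of genotype enrichment over wild-type enrichment from inverse-variance-weighted replicate averages of Illumina-sequenced inputs and outputs, keeping genotypes with ≥10 input reads and ≥1 read per output.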

Point of comparison: U6G C85U, “polymerase ribozyme fitness (log ratio)” value -0.35. Against it:
- U7C C35A G59U C93A A97C U101G — lower, ≤ -4.2
- U7C A23U G25U A37G C93G — lower, ≤ -4.2
- U7C C35U — lower, -2.29
- C8A A16C A60G A91U C96A C114G — lower, ≤ -4.2
- U7G C8U A22C A24C A28U C63U A89U C95U G117U U139G — lower, ≤ -4.2
- U7A C8G A89C C95G — lower, ≤ -4.2
- U6G U9C A12C U45A A73U C75G C76A C93U — lower, ≤ -4.2
- U7A A28C A52C C103U — lower, ≤ -4.2
- U6A A26G G46A U53A C103G A142G — lower, ≤ -4.2
- C5U G25C G42U U61A A107U G133U A142C U148A — lower, ≤ -4.2
- U7A A23C G50U G59A A73C G86U C95G C108U — lower, ≤ -4.2
- U6G A23U A73G C76A A98G C105G A113C A119G — lower, ≤ -4.2
- U6A U90G C95U U109G A137C — lower, ≤ -4.2
- U7G A30U C51U G62A A91U G92U U111G — lower, ≤ -4.2
- U6G U77A G83U U102G — lower, ≤ -4.2
- U6G C38U U45A G50C U55A G65U G74A C93U — lower, ≤ -4.2
- U7G C8U A12U A39U A47U G59C G65U G84A C118A G124A U139A — lower, ≤ -4.2
- U7A A49G C85G A91U G126C — lower, ≤ -4.2
- U7A G42A C75G C85U — lower, ≤ -4.2
- U6C U44A U61G A66G C95G U104G G112U C116U A147U — lower, ≤ -4.2
- U6G A41C G42A U56C C85A C99A — lower, ≤ -4.2
- U6A C51G G59U G68C G86U A97U C99U G100C — lower, ≤ -4.2
- U6C A30G C36A G88U C95A A115G U135C — lower, ≤ -4.2
- U6G A12U A39U A89U C95A A115U G152A — lower, ≤ -4.2
- U6C A19U G25C G58U A66C G80A C85A A97C A98C U104G — lower, ≤ -4.2
- U7C G42A C54A G71A C75U A91U C95A C125G U139G — lower, ≤ -4.2
- U7A C8A A52C U56A G68C G84A G92U C96U C108U G124C U144A U145C — lower, ≤ -4.2
- U7C G25U A66C C87U A115G — lower, ≤ -4.2
- U6G G100A A107U A113U — lower, ≤ -4.2
- U7G A20G G42C A52U C57A C72A A89U A97U — lower, ≤ -4.2
- U7G U15A G58U G70C A91G — lower, ≤ -4.2
- U6C A40U U56A G59U C87U A98U C118U — lower, -0.984
- U6G A41U C76A A147G — lower, ≤ -4.2
- U7C U9G G68U C85G C114G A115G C116G A120U — lower, ≤ -4.2
- U6C U44A C87G A89U — lower, ≤ -4.2
- U6C U13C C14U G34A G80C A91G — lower, ≤ -4.2
- U6G U7C A21U C75U C93G A98U — lower, ≤ -4.2
- C8A A19U A28C A52G A64U G84A C87U C95G G136C — lower, ≤ -4.2
- C5U G50C C85A A106G U148A — lower, ≤ -4.2
- U6A C36U C54U U55G U90G — lower, ≤ -4.2
- C5U G84U U148G — lower, ≤ -4.2
- U6A A37G G71U A73G C93G C99A C131A — lower, ≤ -4.2
- U6A A21U C108G C132U G143U — lower, ≤ -4.2
- U6A A37G G80A C87A U102G G152A — lower, ≤ -4.2
- C8A A17C G50C G62A C85G — lower, ≤ -4.2
- U7G C10U A21G A107G A115U — lower, ≤ -4.2
- U6G C93U A122U G133C G140A — lower, ≤ -4.2
- U7A A49C C51U C87U C108G — lower, ≤ -4.2
- U6G A22U C51A A66C C69U — lower, ≤ -4.2
- U6A G48U G92U A121C A150C — lower, ≤ -4.2
- U7G U9C A20C U45C A73G U77C G92A C95A U102C C116G — lower, ≤ -4.2
- U6G A60G G62A C85A G92U — lower, ≤ -4.2
- C5U G34U U77A — lower, ≤ -4.2
- U6G G46C A89U G94A A115U G126U U130G C149A — lower, ≤ -4.2
- U6G A39C G46C G74A U90A C93U A122G C125A — lower, ≤ -4.2
- U6G A30C C76U U78G — lower, ≤ -4.2
- U6C A41U C69G C96A A115U — lower, ≤ -4.2
- U7G U45A G50A C57G G58C A73G — lower, ≤ -4.2
- U6C U45G G68C G71U C96U C125U G141A — lower, ≤ -4.2
- U7C C8A A22U C32G C43U G46A C93G G94U U101G U145A — lower, ≤ -4.2
- U6A A26C C27G C76G U135G G152U — lower, ≤ -4.2
- U7C A21C A24C G62C C76A G133C — lower, ≤ -4.2
- U7A A21U G25U U44A A49C C54A C63G C85U G86U C99G — lower, ≤ -4.2
- U6A A47C C54U C96A C99A G128A G136C — lower, ≤ -4.2
- U7G A24G A26U A52C G59C A60G C93U C129A — lower, ≤ -4.2
- U6C C8U G83C C116A A121C — lower, ≤ -4.2
- U6C C10A A24U A110G — lower, ≤ -4.2
- U7C G50A G84U C87A U151A — lower, ≤ -4.2
- C8A A17U A23U A26G C27G U90G G92A A115C — lower, ≤ -4.2
- U7C C14G C27A G80C C85G C87A A120U A121G G141U — lower, ≤ -4.2
- U7G C75A G84A G94U A106U A120C — lower, ≤ -4.2
- U6G G46A G50A C85A U102G — lower, ≤ -4.2
- U6A C51U A52U U56A G83U G84A C114U — lower, ≤ -4.2
- U6A A29U A41U G83A G86A C108A U139G — lower, ≤ -4.2
- C5U C87A — lower, ≤ -4.2
- U6G C8U A16G G25U U56A G81A C87U — lower, ≤ -4.2
- U6G A16C A22U C51U C76U C85A C118U — lower, -3.97
- U7C U9C C35G U56A U61G C96G G136U — lower, ≤ -4.2
- U6G C8A C10G C85A — lower, ≤ -4.2
- U7C A24G U31A C43U A52C U55C C75G C85A U90G G133A — lower, ≤ -4.2
- U7A C76A C96A G133C — lower, ≤ -4.2
- C5U G50C C76A C87A — lower, ≤ -4.2
